Source: patent US20240327502A1

Experiments:
[1] = substrate: F protein of hMPV A virus (human metapneumovirus subtype A); experiment: cell-based or functional assay
[2] = substrate: F protein of hMPV B virus (human metapneumovirus subtype B); experiment: cell-based or functional assay

B1: M4B02 (antibody, V domains shown)
VH: QLQLQESGPSETLSLTCTVSGGSISSSSYYWGWIRQPPGKGLEWIGSIYYSGSTYYNPSLKSRVTISVDTSKNQFPLKLSSVTATDTAVYYCARLGVGLYEAFDIWGQGTMVTVSS
VL: [about 100 residues not spelt out]FGQGTRLEIK
PRNT IC50 [1]: > 10 µg/mL | PRNT IC50 [2]: > 10 µg/mL
